# The supplement of paper PMC3334620
# In all, about 33,000 sequences were measured (“E-score (-0.5 to 0.5)”: median about -0.032, highest 2% from about 0.36 on). The list shows a part of the results.
# Molecular target: T1, Sko1 (UniProt Q02100)
# T1 sequence: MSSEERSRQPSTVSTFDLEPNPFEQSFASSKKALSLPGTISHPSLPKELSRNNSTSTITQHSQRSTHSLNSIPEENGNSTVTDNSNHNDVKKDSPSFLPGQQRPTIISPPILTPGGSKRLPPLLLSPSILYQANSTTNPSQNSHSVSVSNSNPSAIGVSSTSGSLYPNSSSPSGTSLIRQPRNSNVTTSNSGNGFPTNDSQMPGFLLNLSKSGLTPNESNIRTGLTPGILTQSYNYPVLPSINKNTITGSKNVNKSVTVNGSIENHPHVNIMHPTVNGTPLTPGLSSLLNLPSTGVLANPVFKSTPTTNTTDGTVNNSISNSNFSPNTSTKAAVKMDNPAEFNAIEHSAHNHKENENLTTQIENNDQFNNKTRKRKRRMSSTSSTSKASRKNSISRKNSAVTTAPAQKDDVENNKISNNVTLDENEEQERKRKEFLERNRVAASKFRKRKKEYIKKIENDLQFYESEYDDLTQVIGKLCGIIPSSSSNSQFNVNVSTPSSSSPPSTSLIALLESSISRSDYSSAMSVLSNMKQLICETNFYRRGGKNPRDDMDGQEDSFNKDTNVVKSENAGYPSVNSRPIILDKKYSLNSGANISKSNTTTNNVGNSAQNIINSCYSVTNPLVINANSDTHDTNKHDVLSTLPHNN
# Assay: PBM E-score (8-mer binding enrichment) (E-score (-0.5 to 0.5)); higher = stronger / more preferred TF binding; most listed sequences are background and not binding sites
# Settings: protein concentration: 200 nM; construct: GST-full length
# Outline: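 Bound GST-tagged yeast transcription factors, applied at about 100-200 nM to double-stranded universal all-10-mer Agilent arrays, were detected with fluorescent anti-GST. Scans were normalised with masliner. A modified Wilcoxon-Mann-Whitney statistic, the E-score, was assigned to each ungapped eight-base word pooled with its reverse complement by the Universal PBM Analysis Suite.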
row,Sequence,PBM E-score
1,AACTCGCT,-0.0545
2,TACGATAA,0.274
3,CAAATTTC,0.126
4,GACCACTC,-0.208
5,AGCTCGCA,-0.0497
6,AGCATCAT,0.263
7,ACATACCG,-0.0469
8,CTCGCGAA,-0.0392
9,AAAGGAAG,-0.122
10,GCCTGATA,-0.0647
11,GTACCTCA,0.0355
12,CTAGGCAC,-0.17
13,CCGAATTC,-0.0237
14,GGTAATTA,0.239
15,GACATGAC,0.272
16,CGACGGCA,-0.211
17,AAGCTCTA,0.0756
18,ATCACGGG,-0.112
19,GGAAGTAA,-0.0611
20,CGCTGGAA,-0.184
21,CATTCCCC,-0.207
22,CGGTTTTA,0.00908
23,ACCATGTC,0.104
24,GCGTGACA,0.147
25,CTGCTATA,-0.0843

row,Sequence,PBM E-score
1,CCTAAGCA,-0.0185
2,GCGCTGCC,-0.268
3,GAAATGCA,-0.103
4,CAATCGAG,-0.197
5,CAAAAGGG,-0.171
6,TCTGCTCA,-0.106
7,CGCCTTAC,0.175
8,GAAAAGAC,0.132
9,GACAAATC,0.154
10,CTAAGACA,0.0545
11,GAAAAAAA,0.232
12,CCGGTTTC,-0.0188
13,AGGCCCTG,-0.281
14,CGCGCTGA,-0.0118
15,AGCAGTCC,-0.301
16,GACATTCA,0.0556
17,CCGTATGA,0.135
18,GTACACGA,0.207
19,TTACTGAA,0.144
20,ATAGATAC,0.0984
21,GTCATAAC,0.285
22,CCGGTTTA,-0.208
23,AGGCCAGA,-0.358
24,CATTTAAA,0.178
25,CCACCGGG,-0.281

row,Sequence,PBM E-score
1,GAATCATA,0.204
2,AAAAGTGC,0.0726
3,CATCACTA,0.296
4,CATAGCAC,0.109
5,CGGTGACA,-0.0125
6,AACATGTG,0.134
7,CCCCGACG,-0.0246
8,CTAAACAG,-0.091
9,AACCCGCG,-0.0555
10,CTAAAGAG,-0.0278
11,CTAGACGC,-0.00436
12,CGTTACCA,0.186
13,ATTACTTA,0.201
14,CTTATTTC,0.228
15,CCGTACCA,-0.118
16,GGCAGGAC,-0.323
17,GAACGACA,0.126
18,GCCTCCCA,-0.282
19,CATAATGC,0.144
20,CACTGTAC,-0.176
21,ACGTTGCT,0.334
22,AGTTTTTG,0.0768
23,GATTTACA,0.0615
24,GCACCGAC,-0.0783
25,CACTACGA,0.265

row,Sequence,PBM E-score
1,GAAGCTGA,0.0452
2,AGATAACG,0.292
3,GGATTAGA,-0.115
4,TCGATTCA,0.0916
5,CCTCATCA,0.129
6,ATCTCTCG,-0.0248
7,GTTACAGA,-0.0825
8,ATACGAAT,0.286
9,CCCACGCC,-0.127
10,ACCGTTAC,0.0271
11,GGGAATTA,0.0914
12,GACGCCTC,0.135
13,CACTCTAA,-0.00829
14,CATTATAG,0.0516
15,GCAGTTAC,0.17
16,GTAAAGAA,0.222
17,CGAATGAC,0.351
18,CGTAGCTC,0.247
19,AAGAAGGC,-0.144
20,CATTTAAG,0.0986
21,CACCCATG,-0.0784
22,CACTACTA,-0.0403
23,AAAGGCAA,0.102
24,ATTCGCAA,0.117
25,GGGGTCTA,-0.219

row,Sequence,PBM E-score
1,GTATCCCA,-0.14
2,GCATAGCA,0.122
3,AAGTTTAT,0.0793
4,AGGTGCAC,0.0724
5,GACCTTGC,-0.376
6,ACAGAAAA,0.162
7,CCGCAAGA,-0.217
8,AGATCATA,0.231
9,AAACTCCT,-0.276
10,AATATAGA,0.274
11,AGTGCGTG,0.152
12,GCATCGCC,-0.164
13,GACCGAAC,-0.0636
14,ATGAGACA,0.0161
15,GGCAAAGA,0.0272
16,GAGTGGCC,-0.248
17,AATGGTTC,0.0708
18,ACACGTCG,0.335
19,AACCGAGT,-0.234
20,CAAAGCTG,-0.15
21,AAGGTTAT,-0.141
22,CCTGCGTA,0.315
23,AACTGTTA,0.119
24,CAATAAGC,-0.134
25,AGTAGTAC,0.173

row,Sequence,PBM E-score
1,GGCATACC,-0.189
2,ATATGAGC,-0.029
3,TAACCCAA,0.0819
4,CGTCGAGC,0.0683
5,TCATGGCA,-0.0752
6,CCCAATTC,0.0482
7,AGTAAGGA,-0.143
8,GGCAGGGA,-0.262
9,ACGCGACC,0.177
10,CAATCGCG,-0.0866
11,GTGACTTA,0.211
12,ACGCCTGA,0.15
13,CATTTGGC,-0.00907
14,TATGCGCA,0.114
15,AAGGTAAG,-0.00253
16,ATGACTTC,0.0498
17,GACGGCAA,0.013
18,CGCAAGCC,0.0906
19,ACTTTCCT,0.0188
20,ATTTCTTG,0.164
21,AAGTCCAT,-0.166
22,GACGCAAC,0.321
23,ATCCATCC,-0.00565
24,ACAAGGTC,-0.171
25,CATCATGC,0.304

row,Sequence,PBM E-score
1,AAGCGGAA,-0.0292
2,GTAAGCCA,-0.0679
3,GCACTTCA,0.0577
4,CATCACCG,0.0964
5,CGGATCTC,-0.185
6,CATATAAA,0.224
7,TCTGAAAA,-0.0416
8,ATGCAAAA,0.116
9,GAGCCACC,-0.276
10,CCTCGAAC,-0.21
11,CTCTCGGA,-0.0819
12,CATTATGC,0.147
13,GGGACACA,-0.17
14,CCCATATA,-0.108
15,AGTGAAAC,0.0257
16,CCCATCCG,-0.166
17,CATATGAC,0.404
18,ATATTCTC,0.189
19,GAGTTACA,0.0628
20,AGTTCACG,0.16
21,CCTGGCGC,-0.133
22,CCGAGAAG,-0.268
